The values that follow come from the supplement of paper PMC11417369.

± gives the standard deviation of the averaged measurements. Some of the results follow.

The subject of this test is PfAP2-EXP AP2 domain (GST-tagged). The test is described as follows: gcPBM binding intensity (ln(normalized median fluorescence intensity)); higher = stronger DNA binding. The essentials:
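Using an Agilent 4 × 180k array, primer-extended double-stranded 36-bp intergenic genomic probes and negative controls were exposed for 1 h to GST-fused P. falciparum DNA-binding domains expressed in E. coli. Binding was carried out in 1× PBS with 1% milk, 0.2 mg/ml BSA, 0.5% salmon testes DNA and 0.03% Triton X-100, and protein was detected with Alexa488 anti-GST antibody and a 488 nm scan. Binding intensity is the highest Masliner-normalised natural-log median intensity across replicate spots of either probe orientation.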
Turning to “ACATGCAAGAAGAAATGTACTTAACATCTATATAGA [XGTACX_site7338]”, the “gcPBM binding intensity (ln)” value was found to be 8.78 ± 0.44.

Consider “TATAATATATAAAAATGTACACATAAATATAAGTAG [XGTACX_site665]”, for which the “gcPBM binding intensity (ln)” value was found to be 8.78 ± 0.3.

In the case of “CACAAACAGACAAACACACACACACGGACATACATA [CACACA_site6350]”, the “gcPBM binding intensity (ln)” value is 8.69 ± 0.53.

Regarding “GTATATATGTTTTATACACACATTAAAGGAAATATA [CACACA_site984]”, the “gcPBM binding intensity (ln)” value was 8.54 ± 0.46.

On to “TTACATATTCATAAAAGTACATAATTATAAAAGGTA [XGTACX_site906]”, for which the “gcPBM binding intensity (ln)” value was found to be 8.67 ± 0.4.

For the sequence “TTTTATACATATTTTACACACTAAAATATACAGATA [CACACA_site4333]”, the “gcPBM binding intensity (ln)” value came out at 8.41 ± 0.26.

Consider “AAAATTAATTTATTTACACACAATATTAAAATATTT [CACACA_site7512]”, for which the “gcPBM binding intensity (ln)” value was 8.48 ± 0.52.

Turning to “TAAAACTTAATGTTTTGTACATATTCTTCTTTATTT [XGTACX_site4271]”, the “gcPBM binding intensity (ln)” value was determined as 8.49 ± 0.26.

Turning to “AATCAAAAAGGAACCATAATATTACAACTATATATA [CACACA_negctrl_site381]”, the “gcPBM binding intensity (ln)” value came out at 8.47 ± 0.47.

As to “TTAACAAAGAAACACACACACACACCCAAAAAAAAA [CACACA_site516]”, the “gcPBM binding intensity (ln)” value was 8.54 ± 0.53.

Consider “ATTATTATAGATAAAACACACAATTTTGTTTTCACA [CACACA_site7792]”, for which the “gcPBM binding intensity (ln)” value came out at 8.28 ± 0.4.

Turning to “AAAAAAAAAATTAAATGTACATATATAATATATATA [XGTACX_site7245]”, the “gcPBM binding intensity (ln)” value is 8.62 ± 0.014.

With “GCCATAAAGATATATACACACATAAAAAAAAGTTAT [CACACA_site6674]”, the “gcPBM binding intensity (ln)” value worked out at 8.65 ± 0.52.

With “TTATATTTTATTATGTGTACGTATATAATATAATAT [XGTACX_site6230]”, the “gcPBM binding intensity (ln)” value is 8.52 ± 0.16.

“AAACAATTATTATATTGTACATATATTACATTATTA [XGTACX_site1089]”: the “gcPBM binding intensity (ln)” value worked out at 8.25 ± 0.44.

For the sequence “GTTATTAAATAATTCACACACATATATAAATAAATA [CACACA_site7129]”, the “gcPBM binding intensity (ln)” value turned out to be 8.31 ± 0.48.

Consider “ATATGTATATAATAAGAACACACATATATTTAATTT [CACACA_site8961]”, for which the “gcPBM binding intensity (ln)” value was 8.38 ± 0.33.

On to “ATAAAAATATATGAAACACACAGTTTCTATAAGAAA [CACACA_site4156]”, for which the “gcPBM binding intensity (ln)” value was determined as 8.34 ± 0.41.

On to “TAATATACTATAAATACACACAAGTGTACATACTTC [CACACA_site983]”, for which the “gcPBM binding intensity (ln)” value is 8.47 ± 0.11.

For “TTAAAAAGAGGTGACACACACATATAAATCTAAATC [CACACA_site3738]”, the “gcPBM binding intensity (ln)” value turned out to be 8.66 ± 0.38.

On to “TATTAAAAGGTGAGTACACACATATCTGAGTATATA [CACACA_site5192]”, for which the “gcPBM binding intensity (ln)” value was 8.39 ± 0.23.

For “TACAATATAATTTAATGTACATGTGAATATATATAT [XGTACX_site4675]”, the “gcPBM binding intensity (ln)” value is 9.34 ± 0.11.

Consider “TTGTGCTAAACAAAAAAAAATATATATAAAAAAATA [XGTACX_negctrl_site388]”, for which the “gcPBM binding intensity (ln)” value was determined as 8.41 ± 0.26.

Consider “ATATGTATATTTTTGATGTGCTTTTATTTGGTTATT [CACACA_negctrl_site626]”, for which the “gcPBM binding intensity (ln)” value is 8.53 ± 0.42.

In the case of “CATCCACATAGATGTACACACATATATATATATATA [CACACA_site5616]”, the “gcPBM binding intensity (ln)” value came out at 10.1 ± 0.3.

On to “ATTTTTTTATAATCAACCCATTTCCTACATTTTTAT [CACACA_negctrl_site1237]”, for which the “gcPBM binding intensity (ln)” value worked out at 8.75 ± 0.52.

Regarding “AAAAAAAATACATACACACACACACGCACATATATA [CACACA_site7645]”, the “gcPBM binding intensity (ln)” value stood at 8.76 ± 0.57.

For the sequence “CTTCATAAAAATTGCACACATATAATAATGTACATA [CACACA_site2212]”, the “gcPBM binding intensity (ln)” value came out at 8.57 ± 0.23.

For the sequence “ATATCTCAACATATCACACATATATATATATAATAT [CACACA_site5018]”, the “gcPBM binding intensity (ln)” value came out at 8.67 ± 0.44.

Consider “AATAAATATAAATAAATAAATATATATATATATTTG [CACACA_negctrl_site1486]”, for which the “gcPBM binding intensity (ln)” value is 8.13 ± 0.22.

As for “TATTTTTTTTCGTAATGTACATAAAAAATGCAAAAA [XGTACX_site8491]”, the “gcPBM binding intensity (ln)” value came out at 9.16 ± 0.64.

As to “TATATATATATAACAACACACACAGATCATAAAACT [CACACA_site8670]”, the “gcPBM binding intensity (ln)” value turned out to be 9.91 ± 0.14.

On to “ATTATATAATTTAATCGTACACAAATATTTGTTAGT [XGTACX_site5913]”, for which the “gcPBM binding intensity (ln)” value is 8.71 ± 0.45.

Take “CTTTTAAAAAAATTCATGCACACGAAATAAAAAGCA [CACACA_site929]”: the “gcPBM binding intensity (ln)” value stood at 8.92 ± 0.28.

For the sequence “TATTATTCCATGTGAAGTACAGAAATATAAATAAAT [XGTACX_site5106]”, the “gcPBM binding intensity (ln)” value came out at 8.63 ± 0.35.

Consider “TAAGTAATAGTTTGTGCACACTCAAGTATATCATAT [CACACA_site4035]”, for which the “gcPBM binding intensity (ln)” value is 8.865 ± 0.021.

As for “CCATAATTATATGCCAGTACATATTTGTAACAAAAA [XGTACX_site851]”, the “gcPBM binding intensity (ln)” value is 8.67 ± 0.41.

On to “TTTATTTTTCATTGGGGTACACAAGTTTATTTTATT [XGTACX_site4263]”, for which the “gcPBM binding intensity (ln)” value came to 9.04 ± 0.46.

In the case of “CAAAATATTTTTATAACACACATATATAGAATGTGC [CACACA_site1145]”, the “gcPBM binding intensity (ln)” value came out at 8.45 ± 0.46.

In the case of “TATCATCTTAATATCGTGCACATTTATAGAACGAAA [GTGCAC_site9992]”, the “gcPBM binding intensity (ln)” value came out at 9.13 ± 0.24.

For the sequence “ATACCTCAAATTGATACACACAAAAAAAGTAAATTA [CACACA_site3134]”, the “gcPBM binding intensity (ln)” value was found to be 8.64 ± 0.6.

With “TTTTACTATACTTATGCACACAAGATAAATACATAT [CACACA_site5619]”, the “gcPBM binding intensity (ln)” value was found to be 8.83 ± 0.028.

Regarding “CTATTTTAATATTTTACACACCATGTAAAATATATA [CACACA_site5732]”, the “gcPBM binding intensity (ln)” value turned out to be 8.48 ± 0.3.

As for “ATACACTAGAAAATTTTATAGTATTATTAATGTTAA [GTGCAC_negctrl_site101]”, the “gcPBM binding intensity (ln)” value was 8.19 ± 0.42.
